# Screen size: about 420,000 compounds; about 50,000 (12%) were called active. Inconclusive results, whose numbers are uncertain, are shown with a selection of clear calls. Calls come from the whole dose curve; as a rule, active = well fitted inhibition curve with a large enough effect; inconclusive = small, poorly fitted or top-dose-only effect; inactive = flat fitted curve, though single readings scatter. No potency is given beside an inconclusive call; the fits are too rough.
# Test: qHTS for Inhibitors of human tyrosyl-DNA phosphodiesterase 1 (TDP1): qHTS in cells in presence of CPT; note: nearly all actives have a fitted effect of over 55% in size
# Details: chicken DT40 Tdp1-/-;hTDP1 cells + 20 nM CPT, ATP luminescence, 48 h; activity change, negative = growth inhibition: at 46.2 µM (top of the series) unless noted
# Outline: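 Chicken DT40 Tdp1-/- cells complemented with human TDP1, 400 cells/well, exposed to compounds plus 20 nM camptothecin for at least 48 h at 37 C; viability read as ATP content by CellTiter-Glo luminescence.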
# % is set by controls: 0 for no effect and ±100 for the full control effect; potency is the fitted concentration of half-maximal effect; tags give direction and shape of the fitted curve.
Compound,"activity change, negative = growth inhibition",Potency
CNC(=O)Cn1ncc2c(C)n(Cc3ccc(C)cc3)c(C)c2c1=O,inactive: -13.5%,–
COC(=O)C[C@@H]1OC[C@H](Cc2ccccc2)N1S(=O)(=O)c1ccc(C)cc1,–,"inconclusive [inhibitor, single point]"
COc1ccc(CNS(=O)(=O)c2ccc(Br)s2)cc1,inactive: 2.57%,–
NC(=O)C1(Nc2ccc(-c3ccc(Cl)cc3)cc2)CCCC1,–,active: 16.4 µM
Cc1onc(-c2ccccc2)c1C(=O)NC(=S)Nc1sc2c(c1C#N)CCC(C)C2 (stereo not drawn),–,"inconclusive [inhibitor, single point]"
CCOC(=O)CSc1nc2ccc(N3CCOCC3)cc2c(=O)n1Cc1ccccc1,–,"inconclusive [inhibitor, partial curve, poor fit]"
Cc1cc(C)c(S(=O)(=O)N(C)CC(N)=O)c(C)c1,–,"inconclusive [inhibitor, single point]"
O=C(COC(=O)c1cccc(Cl)c1)NC(=O)NCc1ccccc1,inactive: -2.34%,–
Nc1cccc2c1C(=O)N(C(=O)/C=C/c1ccc(F)cc1)C2=O,–,active: 16.4 µM
COc1ccc(C(=O)N/C(=C\c2ccc(OC)c(OC)c2)C(=O)N2CCCCC2)cc1,–,"inconclusive [inhibitor, single point]"
COc1ccccc1CNC(=O)CCc1ccccc1,–,"inconclusive [inhibitor, single point]"
Oc1ccc(-c2csc(Nc3ccccn3)n2)cc1,–,"inconclusive [inhibitor, single point]"
COc1cc(C(=O)NCC2CCCO2)ccc1OCc1ccc(Cl)cc1 (stereo not drawn),–,"inconclusive [inhibitor, partial curve]"
CCOC(=O)c1c(C)[nH]c(C(=O)CSc2nnc(Nc3ccccc3F)s2)c1C,–,"inconclusive [inhibitor, single point]"
COc1ccc(Cl)cc1Cn1c(C)c(C(=O)NCc2ccc3c(c2)OCCO3)sc1=O,–,"inconclusive [inhibitor, partial curve, poor fit]"
Cc1ccc2nc(N3CCC(C(=O)NCc4ccc(F)cc4)CC3)[nH]c2c1,–,"inconclusive [inhibitor, single point]"
CS(=O)(=O)N1CCC2(CC1)CN(c1cccc(-c3ccccc3)c1)C2,–,"inconclusive [inhibitor, single point]"
Cc1ccc(S(=O)(=O)CCC(=O)OCCOc2cccc(Br)c2)cc1,inactive: 11.7%,–
COc1ccc(COC(=O)c2ccc(Cl)c(S(=O)(=O)N3CC(C)OC(C)C3)c2)cc1 (stereo not drawn),–,"inconclusive [inhibitor, single point]"
CCSc1nc2ccccc2[nH]1,–,inactive
CCOC(=O)C(=Cc1cn(C)c2ccc(S(=O)(=O)N(C)C)cc12)C(=O)OCC,–,"inconclusive [inhibitor, single point]"
CC(C)(C)c1ccc(-n2ncc3c2CCCC3NC(=O)CCC2=NNC(=O)CC2)cc1 (stereo not drawn),–,active: 9.2 µM

Compound,"activity change, negative = growth inhibition",Potency
CCCC(=O)Nc1c(-c2ccccc2OC)c(=O)c2ccccc2n1C,inactive: -10.8%,–
CCc1ccccc1N(C)C(=O)c1nn(C)c2c1CSc1ccccc1-2,–,"inconclusive [inhibitor, single point]"
COC(=O)c1ccc(Oc2nc3c(c(=O)n(C)c(=O)n3C)n2C(C)C)cc1,–,"inconclusive [inhibitor, partial curve, poor fit]"
Cc1ccc2c(c1)N(CC(=O)NCC1CCCO1)C(=O)C(C)O2 (stereo not drawn),inactive: -0.118%,–
Cc1cc(C)c(S(=O)(=O)NCc2csc(-c3ccccc3)n2)c(C)c1,–,"inconclusive [inhibitor, single point]"
COc1ccc(C(=O)NCc2nnc(SCCOc3ccccc3)n2C)cc1,–,"inconclusive [inhibitor, single point]"
CCC(c1nnc(SCC(=O)Nc2c(F)cccc2F)n1Cc1ccccc1)N(C)C (stereo not drawn),inactive: -4.42%,–
O=C(C[C@H]1C/C=C\C[C@@H](Cc2ccc(F)cc2)C(=O)OC[C@@H](Cc2c[nH]c3ccccc23)NC1=O)NCCO,–,"inconclusive [inhibitor, single point]"
Cc1ccc2nc(COc3cccc(NC(=O)c4cccc(Cl)c4)c3)cc(=O)n2c1,inactive: 5.1%,–
CCn1c(SCc2ccc(Cl)cc2Cl)nc2nc3c(cc2c1=O)CCCC3,–,"inconclusive [inhibitor, partial curve]"
N#C/C(=C\c1ccc(OC(=O)c2cccs2)cc1)c1nc2ccccc2[nH]1,–,"inconclusive [inhibitor, partial curve]"
COc1cc2nc(N3CCN(C(=O)OCc4ccccc4)[C@H](C(=O)NC(C)(C)C)C3)nc(N)c2cc1OC,–,"inconclusive [inhibitor, single point]"
Cc1ccc(/C=N/NC(=O)c2cccc(NC(=O)c3ccccc3Cl)c2)o1,–,"inconclusive [inhibitor, partial curve, poor fit]"
CS(=O)(=O)Nc1cccc(NC(=O)c2cccc3c(-c4cccc(C(N)=O)c4)coc23)c1,–,active: 18.4 µM
COc1ccccc1NC(=O)Cn1nnc(C(=O)NCCc2ccccc2)c1N,inconclusive: -32.1% [inhibitor],–
C=CCSC(=C(C#N)C#N)c1cc2c([nH]1)CCCC2,–,active: 10.3 µM
CC(=O)NC(Cc1ccc(Cl)cc1)C(=O)NCC(N)C(=O)c1ccccc1 (stereo not drawn),–,active: 15.8 µM
CN(C)C(=O)CCc1ccc2c3c([nH]c2c1)[C@]1(C)[C@@H](C(=O)N2CCOCC2)C[C@H](CC(=O)NCC24CC5CC(CC(C5)C2)C4)C(=O)N1CC3,–,active: 14.6 µM
COc1cccc(-c2nn(-c3ccc(C)cc3)cc2C(=O)NCC2CCCO2)c1 (stereo not drawn),–,"inconclusive [inhibitor, partial curve, poor fit]"
CNC(=S)N(CCc1c(C)[nH]c2ccccc12)Cc1ccco1,–,"inconclusive [inhibitor, single point]"
Cc1nn(C)cc1C1C2=C(CC(C)(C)CC2=O)N(c2ccccc2)C2=C1C(=O)CC(C)(C)C2,inactive: -6.86%,–

# Source: PubChem BioAssay AID686979 (National Center for Advancing Translational Sciences (NCATS), 2013)
